# This is one part of the list.
# B1: FliC (Pseudomonas aeruginosa), P72151 (protein)
# chain: MALTVNTNIASLNTQRNLNASSNDLNTSLQRLTTGYRINSAKDDAAGLQISNRLSNQISGLNVATRNANDGISLAQTAEGALQQSTNILQRIRDLALQSANGSNSDADRAALQKEVAAQQAELTRISDTTTFGGRKLLDGSFGTTSFQVGSNAYETIDISLQNASASAIGSYQVGSNGAGTVASVAGTATASGIASGTVNLVGGGQVKNIAIAAGDSAKAIAEKMDGAIPNLSARARTVFTADVSGVTGGSLNFDVTVGSNTVSLAGVTSTQDLADQLNSNSSKLGITASINDKGVLTITSATGENVKFGAQTGTATAGQVAVKVQGSDGKFEAAAKNVVAAGTAATTTIVTGYVQLNSPTAYSVSGTGTQASQVFGNASAAQKSSVASVDISTADGAQNAIAVVDNALAAIDAQRADLGAVQNRFKNTIDNLTNISENATNARSRIKDTDFAAETAALSKNQVLQQAGTAILAQANQLPQAVLSLLR
# Columns and labels:
# Test in all cases: glycan array binding signal (z-score within array); higher = stronger binding
# Conditions in all cases: glycan notation: IUPAC condensed, linker removed
# [1] = target: Gal(b1-4)GlcNAc(b1-6)GalNAc
# Method in brief: (§1)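 Arrays were curated from the Consortium for Functional Glycomics database, 3228 in total, and kept only where the protein sequence was available. Binding is expressed as a within-array Z-score. This score was averaged across arrays of the same protein sequence at different concentrations or buffers and across linkers, and negative values can be read as non-binding.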
# [2] = target: Gal(b1-4)GlcNAc(b1-6)[Gal(b1-3)]GalNAc
# Method in brief: as §1
# [3] = target: Gal(b1-4)GlcNAc(b1-6)[Gal(b1-4)GlcNAc(b1-3)]GalNAc
# Method in brief: as §1
# Gal(b1-4)GlcNAc6P = target: Gal(b1-4)GlcNAc6P
# Method in brief: as §1
# Gal(b1-6)Gal = target: Gal(b1-6)Gal
# Method in brief: as §1
# Gal3S(b1-3)GalNAc = target: Gal3S(b1-3)GalNAc
# Method in brief: as §1
# Gal3S(b1-3)GlcNAc = target: Gal3S(b1-3)GlcNAc
# Method in brief: as §1
# [4] = target: Gal3S(b1-3)[Fuc(a1-4)]GlcNAc
# Method in brief: as §1
# Gal3S(b1-4)Glc = target: Gal3S(b1-4)Glc
# Method in brief: as §1
# Gal3S(b1-4)Glc6S = target: Gal3S(b1-4)Glc6S
# Method in brief: as §1
# Gal3S(b1-4)GlcNAc = target: Gal3S(b1-4)GlcNAc
# Method in brief: as §1
# [5] = target: Gal3S(b1-4)[Fuc(a1-3)]Glc6S
# Method in brief: as §1
# [6] = target: Gal3S(b1-4)[Fuc(a1-3)]GlcNAc
# Method in brief: as §1
# [7] = target: Gal3S(b1-4)[Fuc(a1-3)]GlcNAc6S
# Method in brief: as §1
# Gal3S4S(b1-4)GlcNAc = target: Gal3S4S(b1-4)GlcNAc
# Method in brief: as §1
# Gal3S6S(b1-4)GlcNAc = target: Gal3S6S(b1-4)GlcNAc
# Method in brief: as §1
# Gal3S6S(b1-4)GlcNAc6S = target: Gal3S6S(b1-4)GlcNAc6S
# Method in brief: as §1
# Gal4S(b1-4)GlcNAc = target: Gal4S(b1-4)GlcNAc
# Method in brief: as §1
# Gal4S6S(b1-4)GlcNAc = target: Gal4S6S(b1-4)GlcNAc
# Method in brief: as §1
# Gal6P(b1-4)GlcNAc = target: Gal6P(b1-4)GlcNAc
# Method in brief: as §1
# Gal6S(b1-3)GlcNAc = target: Gal6S(b1-3)GlcNAc
# Method in brief: as §1
# Gal6S(b1-3)GlcNAc6S = target: Gal6S(b1-3)GlcNAc6S
# Method in brief: as §1
# Gal6S(b1-4)Glc = target: Gal6S(b1-4)Glc
# Method in brief: as §1
# Gal6S(b1-4)Glc6S = target: Gal6S(b1-4)Glc6S
# Method in brief: as §1
# Gal6S(b1-4)GlcNAc = target: Gal6S(b1-4)GlcNAc
# Method in brief: as §1
# Gal6S(b1-4)GlcNAc6S = target: Gal6S(b1-4)GlcNAc6S
# Method in brief: as §1
# GalNAc(a1-3)Gal = target: GalNAc(a1-3)Gal
# Method in brief: as §1
# GalNAc(a1-3)GalNAc = target: GalNAc(a1-3)GalNAc
# Method in brief: as §1
# [8] = target: GalNAc(a1-3)GalNAc(a1-3)Gal(a1-4)Gal(b1-4)GlcNAc
# Method in brief: as §1
# [9] = target: GalNAc(a1-3)GalNAc(b1-3)Gal(a1-4)Gal(b1-4)Glc
# Method in brief: as §1
# GalNAc(b1-3)Gal = target: GalNAc(b1-3)Gal
# Method in brief: as §1
# [10] = target: GalNAc(b1-3)Gal(a1-4)Gal(b1-4)GlcNAc
# Method in brief: as §1
# [11] = target: GalNAc(b1-3)Gal(a1-4)Gal(b1-4)GlcNAc(b1-3)Gal(b1-4)Glc
# Method in brief: as §1
# [12] = target: GalNAc(b1-3)Gal(a1-6)Gal(b1-4)Glc
# Method in brief: as §1
# GalNAc(b1-3)GalNAc = target: GalNAc(b1-3)GalNAc
# Method in brief: as §1
# GalNAc(b1-3)GlcNAc = target: GalNAc(b1-3)GlcNAc
# Method in brief: as §1
# GalNAc(b1-4)Gal(b1-4)Glc = target: GalNAc(b1-4)Gal(b1-4)Glc
# Method in brief: as §1
# GalNAc(b1-4)GlcNAc = target: GalNAc(b1-4)GlcNAc
# Method in brief: as §1
binder,measurement,setting,value
B1,glycan array binding signal (z-score),[1],-0.096
same,glycan array binding signal (z-score),[2],-0.192
same,glycan array binding signal (z-score),[3],-0.129
same,glycan array binding signal (z-score),Gal(b1-4)GlcNAc6P,-0.18
same,glycan array binding signal (z-score),Gal(b1-6)Gal,-0.07
same,glycan array binding signal (z-score),Gal3S(b1-3)GalNAc,-0.09
same,glycan array binding signal (z-score),Gal3S(b1-3)GlcNAc,-0.053
same,glycan array binding signal (z-score),[4],-0.104
same,glycan array binding signal (z-score),Gal3S(b1-4)Glc,-0.181
same,glycan array binding signal (z-score),Gal3S(b1-4)Glc6S,-0.111
same,glycan array binding signal (z-score),Gal3S(b1-4)GlcNAc,-0.259
same,glycan array binding signal (z-score),[5],-0.023
same,glycan array binding signal (z-score),[6],-0.027
same,glycan array binding signal (z-score),[7],-0.056
same,glycan array binding signal (z-score),Gal3S4S(b1-4)GlcNAc,-0.162
same,glycan array binding signal (z-score),Gal3S6S(b1-4)GlcNAc,-0.145
same,glycan array binding signal (z-score),Gal3S6S(b1-4)GlcNAc6S,-0.237
same,glycan array binding signal (z-score),Gal4S(b1-4)GlcNAc,-0.116
same,glycan array binding signal (z-score),Gal4S6S(b1-4)GlcNAc,-0.141
same,glycan array binding signal (z-score),Gal6P(b1-4)GlcNAc,-0.243
same,glycan array binding signal (z-score),Gal6S(b1-3)GlcNAc,-0.029
same,glycan array binding signal (z-score),Gal6S(b1-3)GlcNAc6S,-0.193
same,glycan array binding signal (z-score),Gal6S(b1-4)Glc,-0.124
same,glycan array binding signal (z-score),Gal6S(b1-4)Glc6S,-0.158
same,glycan array binding signal (z-score),Gal6S(b1-4)GlcNAc,-0.086
same,glycan array binding signal (z-score),Gal6S(b1-4)GlcNAc6S,-0.194
same,glycan array binding signal (z-score),GalNAc(a1-3)Gal,-0.141
same,glycan array binding signal (z-score),GalNAc(a1-3)GalNAc,-0.15
same,glycan array binding signal (z-score),[8],-0.072
same,glycan array binding signal (z-score),[9],-0.183
same,glycan array binding signal (z-score),GalNAc(b1-3)Gal,-0.205
same,glycan array binding signal (z-score),[10],-0.16
same,glycan array binding signal (z-score),[11],-0.148
same,glycan array binding signal (z-score),[12],-0.167
same,glycan array binding signal (z-score),GalNAc(b1-3)GalNAc,-0.154
same,glycan array binding signal (z-score),GalNAc(b1-3)GlcNAc,-0.196
same,glycan array binding signal (z-score),GalNAc(b1-4)Gal(b1-4)Glc,-0.053
same,glycan array binding signal (z-score),GalNAc(b1-4)GlcNAc,-0.058
